Results as given in the RNAGym collection of RNA variant scans (doi:10.1073/pnas.2313332121).
Variants at the floor of the assay are shown more often than the library holds them.

B1: TPR 5TU (parent)
chain: GGAUCUUCUCGAUCUAACAAAAAAGACAAAUCUGCCACAAAGCUUGAGAGCAUCUUCGGAUGCAGAGGCGGCAGCCUUCGGUGGCGCGAUAGCGCCAACGUUCUCAACUAUGACACGCAAAACGCGUGCUCCGUUGAAUGGAGUUUAUCAUG

Variants of: B1
Assay: polymerase ribozyme fitness, log enrichment relative to wild type (log ratio); higher = more active; in vitro selection for triplet polymerase activity
How it was run: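 In triplicate, a single round of in vitro selection was run on each mutant library, PCR-built and transcribed, covering one subunit of a heterodimeric triplet polymerase ribozyme. Frozen incubation at −7 °C followed annealing with a biotinylated primer, partner subunit and triplets, and extended constructs were then gel-excised, streptavidin-captured and taken through RT-PCR. Fitness is the logarithm of genotype enrichment over wild-type enrichment, from inverse-variance-weighted replicate averages of Illumina-sequenced inputs and outputs. […] only genotypes with ≥10 input reads and ≥1 read per output were kept.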

Point of comparison: GGAUCUUCUCGAUCUAACAAAAAAGACAAAUCUGCCACAAAGCUUGAGAGCAUCUUCGGAUGCAGAGGCGGCAGCCUUCGGUGGCGCGAUAGCGCCAACGUUCUCAACUAUGACACGCAAAACGCGUGCGCCGUUGAAUGGAGUUUAUCAUG [U130G], “polymerase ribozyme fitness (log ratio)” value -2.99. Against it:
- GGAUCUUCUCGAUCUAACAAAAAAGACAAAUCUGCCACAAAGCUUGAGAGCAUCUUCGGAUGCAGAGGCGGCAGCCUUCGGUGGCGCGAUAGCGCCAACGUUCUCAACUAUGACACGCAAAACGCGUACUCCGUUGGAUGGAGUUUAUCAUG [G128A A137G] — lower, ≤ -4.2
- GGAUCUUCUCGAUCUAACAAAAAAGACAAAUCUGCCACAAAGCUUGAGAGCAUCUUCGGAUGCAGAGGCGGCAGCCUUCGGUGGCGCGAUAGCGCCAACGUUCUCAACUAUGACACGCAAAACGCGUACUCGGUCGAAUGGAGUUUAUCAUG [G128A C132G U135C] — lower, ≤ -4.2
- GGAUCUUCUCGAUCUAACAAAAAAGACAAAUCUGCCACAAAGCUUGAGAGCAUCUUCGGAUGCAGAGGCGGCAGCCUUCGGUGGCGCGAUAGCGCCAACGUUCUCAACUAUGACACGCAAAACGCGUACUCCUUUGAAUGGAGUUUAUCAUG [G128A G133U] — lower, -4
- GGAUCUUCUCGAUCUAACAAAAAAGACAAAUCUGCCACAAAGCUUGAGAGCAUCUUCGGAUGCAGAGGCGGCAGCCUUCGGUGGCGCGAUAGCGCCAACGUUCUCAACUAUGACACGCAAAACGCGUCCUCCGUUGAAUGGAGUUUAUCAUG [G128C] — higher, -2.21
- GGAUCUUCUCGAUCUAACAAAAAAGACAAAUCUGCCACAAAGCUUGAGAGCAUCUUCGGAUGCAGAGGCGGCAGCCUUCGGUGGCGCGAUAGCGCCAACGUUCUCAACUAUGACACGCAAAACGCGUCCUCCGUUGAAUGGAGUUUAUCGUG [G128C A150G] — lower, ≤ -4.2
- GGAUCUUCUCGAUCUAACAAAAAAGACAAAUCUGCCACAAAGCUUGAGAGCAUCUUCGGAUGCAGAGGCGGCAGCCUUCGGUGGCGCGAUAGCGCCAACGUUCUCAACUAUGACACGCAAAACGCGUCCUCCGUUGAAAGGAGUUUAUCAUG [G128C U139A] — lower, ≤ -4.2
- GGAUCUUCUCGAUCUAACAAAAAAGACAAAUCUGCCACAAAGCUUGAGAGCAUCUUCGGAUGCAGAGGCGGCAGCCUUCGGUGGCGCGAUAGCGCCAACGUUCUCAACUAUGACACGCAAAACGCGUUCUCCGUUGAAUGGAGUUUAUCAUG [G128U] — higher, -2.53
- GGAUCUUCUCGAUCUAACAAAAAAGACAAAUCUGCCACAAAGCUUGAGAGCAUCUUCGGAUGCAGAGGCGGCAGCCUUCGGUGGCGCGAUAGCGCCAACGUUCUCAACUAUGACACGCAAAACGCGUGGUCCGUUGAAUGGAAUUUAUCAUG [C129G G143A] — higher, -2.23
- GGAUCUUCUCGAUCUAACAAAAAAGACAAAUCUGCCACAAAGCUUGAGAGCAUCUUCGGAUGCAGAGGCGGCAGCCUUCGGUGGCGCGAUAGCGCCAACGUUCUCAACUAUGACACGCAAAACGCGUGCACCGUUGAAUGGAGUUUAUCAUG [U130A] — higher, -1.66
- GGAUCUUCUCGAUCUAACAAAAAAGACAAAUCUGCCACAAAGCUUGAGAGCAUCUUCGGAUGCAGAGGCGGCAGCCUUCGGUGGCGCGAUAGCGCCAACGUUCUCAACUAUGACACGCAAAACGCGUGCACCGUUGAAUGGAGAUUAUCAUG [U130A U144A] — lower, ≤ -4.2
- GGAUCUUCUCGAUCUAACAAAAAAGACAAAUCUGCCACAAAGCUUGAGAGCAUCUUCGGAUGCAGAGGCGGCAGCCUUCGGUGGCGCGAUAGCGCCAACGUUCUCAACUAUGACACGCAAAACGCGUGCCCCGUUGAAUGGAGUUUAUCAUG [U130C] — higher, 1.27
- GGAUCUUCUCGAUCUAACAAAAAAGACAAAUCUGCCACAAAGCUUGAGAGCAUCUUCGGAUGCAGAGGCGGCAGCCUUCGGUGGCGCGAUAGCGCCAACGUUCUCAACUAUGACACGCAAAACGCGUGCGCCAUUGAAUGGAGCUUAUCAUG [U130G G133A U144C] — lower, ≤ -4.2
- GGAUCUUCUCGAUCUAACAAAAAAGACAAAUCUGCCACAAAGCUUGAGAGCAUCUUCGGAUGCAGAGGCGGCAGCCUUCGGUGGCGCGAUAGCGCCAACGUUCUCAACUAUGACACGCAAAACGCGUGCUGCUUUGAAUGGAGUUUAUCAUG [C131G G133U] — lower, -3.77
- GGAUCUUCUCGAUCUAACAAAAAAGACAAAUCUGCCACAAAGCUUGAGAGCAUCUUCGGAUGCAGAGGCGGCAGCCUUCGGUGGCGCGAUAGCGCCAACGUUCUCAACUAUGACACGCAAAACGCGUGCUUCGUUGAAUGGAGUUUACCAUG [C131U U148C] — higher, -2.73
- GGAUCUUCUCGAUCUAACAAAAAAGACAAAUCUGCCACAAAGCUUGAGAGCAUCUUCGGAUGCAGAGGCGGCAGCCUUCGGUGGCGCGAUAGCGCCAACGUUCUCAACUAUGACACGCAAAACGCGUGCUCGUUUGAAUGGAGUUUAUCAUG [C132G G133U] — within 0.2 log units, -2.9
- GGAUCUUCUCGAUCUAACAAAAAAGACAAAUCUGCCACAAAGCUUGAGAGCAUCUUCGGAUGCAGAGGCGGCAGCCUUCGGUGGCGCGAUAGCGCCAACGUUCUCAACUAUGACACGCAAAACGCGUGCUCGGGUGAAUGGAGUUUAACAUG [C132G U134G U148A] — lower, ≤ -4.2
- GGAUCUUCUCGAUCUAACAAAAAAGACAAAUCUGCCACAAAGCUUGAGAGCAUCUUCGGAUGCAGAGGCGGCAGCCUUCGGUGGCGCGAUAGCGCCAACGUUCUCAACUAUGACACGCAAAACGCGUGCUCUGUUGAAGAGAGUUUAUCAUG [C132U U139G G140A] — higher, 1.22
- GGAUCUUCUCGAUCUAACAAAAAAGACAAAUCUGCCACAAAGCUUGAGAGCAUCUUCGGAUGCAGAGGCGGCAGCCUUCGGUGGCGCGAUAGCGCCAACGUUCUCAACUAUGACACGCAAAACGCGUGCUCCAUUUAGUGGAGUUUAUCAUG [G133A G136U A138G] — lower, ≤ -4.2
- GGAUCUUCUCGAUCUAACAAAAAAGACAAAUCUGCCACAAAGCUUGAGAGCAUCUUCGGAUGCAGAGGCGGCAGCCUUCGGUGGCGCGAUAGCGCCAACGUUCUCAACUAUGACACGCAAAACGCGUGCUCCUUAGAAGGGAGGUUAUCUUG [G133U U135A U139G U144G A150U] — lower, -4.1
- GGAUCUUCUCGAUCUAACAAAAAAGACAAAUCUGCCACAAAGCUUGAGAGCAUCUUCGGAUGCAGAGGCGGCAGCCUUCGGUGGCGCGAUAGCGCCAACGUUCUCAACUAUGACACGCAAAACGCGUGCUCCGAUGACUGGAGUUUAACAUG [U134A A138C U148A] — lower, ≤ -4.2
- GGAUCUUCUCGAUCUAACAAAAAAGACAAAUCUGCCACAAAGCUUGAGAGCAUCUUCGGAUGCAGAGGCGGCAGCCUUCGGUGGCGCGAUAGCGCCAACGUUCUCAACUAUGACACGCAAAACGCGUGCUCCGAUGAAUAGAGUUUAUCAUG [U134A G140A] — lower, -3.58
- GGAUCUUCUCGAUCUAACAAAAAAGACAAAUCUGCCACAAAGCUUGAGAGCAUCUUCGGAUGCAGAGGCGGCAGCCUUCGGUGGCGCGAUAGCGCCAACGUUCUCAACUAUGACACGCAAAACGCGUGCUCCGCUGAAUGGAGGUUAUCAUG [U134C U144G] — higher, 0.895
- GGAUCUUCUCGAUCUAACAAAAAAGACAAAUCUGCCACAAAGCUUGAGAGCAUCUUCGGAUGCAGAGGCGGCAGCCUUCGGUGGCGCGAUAGCGCCAACGUUCUCAACUAUGACACGCAAAACGCGUGCUCCGUAGAAUGGAGUUUAUCAUG [U135A] — higher, -0.939
- GGAUCUUCUCGAUCUAACAAAAAAGACAAAUCUGCCACAAAGCUUGAGAGCAUCUUCGGAUGCAGAGGCGGCAGCCUUCGGUGGCGCGAUAGCGCCAACGUUCUCAACUAUGACACGCAAAACGCGUGCUCCGUCGAAUGGAGUUUAUCAUG [U135C] — higher, -1.38
- GGAUCUUCUCGAUCUAACAAAAAAGACAAAUCUGCCACAAAGCUUGAGAGCAUCUUCGGAUGCAGAGGCGGCAGCCUUCGGUGGCGCGAUAGCGCCAACGUUCUCAACUAUGACACGCAAAACGCGUGCUCCGUCGAAUGGAGUUUAUCAAG [U135C U151A] — lower, ≤ -4.2
- GGAUCUUCUCGAUCUAACAAAAAAGACAAAUCUGCCACAAAGCUUGAGAGCAUCUUCGGAUGCAGAGGCGGCAGCCUUCGGUGGCGCGAUAGCGCCAACGUUCUCAACUAUGACACGCAAAACGCGUGCUCCGUGGAAUGGAGUUUAUCAUG [U135G] — lower, -3.19
- GGAUCUUCUCGAUCUAACAAAAAAGACAAAUCUGCCACAAAGCUUGAGAGCAUCUUCGGAUGCAGAGGCGGCAGCCUUCGGUGGCGCGAUAGCGCCAACGUUCUCAACUAUGACACGCAAAACGCGUGCUCCGUUCAAUGGAGUUUAUCAGG [G136C U151G] — lower, ≤ -4.2
- GGAUCUUCUCGAUCUAACAAAAAAGACAAAUCUGCCACAAAGCUUGAGAGCAUCUUCGGAUGCAGAGGCGGCAGCCUUCGGUGGCGCGAUAGCGCCAACGUUCUCAACUAUGACACGCAAAACGCGUGCUCCGUUUAAUGGACUUUAUCAUG [G136U G143C] — lower, -3.26
- GGAUCUUCUCGAUCUAACAAAAAAGACAAAUCUGCCACAAAGCUUGAGAGCAUCUUCGGAUGCAGAGGCGGCAGCCUUCGGUGGCGCGAUAGCGCCAACGUUCUCAACUAUGACACGCAAAACGCGUGCUCCGUUUAAAGGAGUUUAACAUG [G136U U139A U148A] — lower, ≤ -4.2
- GGAUCUUCUCGAUCUAACAAAAAAGACAAAUCUGCCACAAAGCUUGAGAGCAUCUUCGGAUGCAGAGGCGGCAGCCUUCGGUGGCGCGAUAGCGCCAACGUUCUCAACUAUGACACGCAAAACGCGUGCUCCGUUGCGUGGAGUUUAUCAUG [A137C A138G] — lower, -3.68
- GGAUCUUCUCGAUCUAACAAAAAAGACAAAUCUGCCACAAAGCUUGAGAGCAUCUUCGGAUGCAGAGGCGGCAGCCUUCGGUGGCGCGAUAGCGCCAACGUUCUCAACUAUGACACGCAAAACGCGUGCUCCGUUGGAUGCAGUUUAUCAUG [A137G G141C] — higher, -2.74
- GGAUCUUCUCGAUCUAACAAAAAAGACAAAUCUGCCACAAAGCUUGAGAGCAUCUUCGGAUGCAGAGGCGGCAGCCUUCGGUGGCGCGAUAGCGCCAACGUUCUCAACUAUGACACGCAAAACGCGUGCUCCGUUGUAUGGAGGUUAUCAUG [A137U U144G] — lower, -4.2
- GGAUCUUCUCGAUCUAACAAAAAAGACAAAUCUGCCACAAAGCUUGAGAGCAUCUUCGGAUGCAGAGGCGGCAGCCUUCGGUGGCGCGAUAGCGCCAACGUUCUCAACUAUGACACGCAAAACGCGUGCUCCGUUGUAUGGAGUAUCUCAUG [A137U U145A A147C] — lower, ≤ -4.2
- GGAUCUUCUCGAUCUAACAAAAAAGACAAAUCUGCCACAAAGCUUGAGAGCAUCUUCGGAUGCAGAGGCGGCAGCCUUCGGUGGCGCGAUAGCGCCAACGUUCUCAACUAUGACACGCAAAACGCGUGCUCCGUUGUAUGGAGUUUAGCAUG [A137U U148G] — lower, ≤ -4.2
- GGAUCUUCUCGAUCUAACAAAAAAGACAAAUCUGCCACAAAGCUUGAGAGCAUCUUCGGAUGCAGAGGCGGCAGCCUUCGGUGGCGCGAUAGCGCCAACGUUCUCAACUAUGACACGCAAAACGCGUGCUCCGUUGAUUGGAGUUUUUCAUG [A138U A147U] — lower, -3.38
- GGAUCUUCUCGAUCUAACAAAAAAGACAAAUCUGCCACAAAGCUUGAGAGCAUCUUCGGAUGCAGAGGCGGCAGCCUUCGGUGGCGCGAUAGCGCCAACGUUCUCAACUAUGACACGCAAAACGCGUGCUCCGUUGAUUGCAGUUUAUCAUG [A138U G141C] — lower, -3.88
- GGAUCUUCUCGAUCUAACAAAAAAGACAAAUCUGCCACAAAGCUUGAGAGCAUCUUCGGAUGCAGAGGCGGCAGCCUUCGGUGGCGCGAUAGCGCCAACGUUCUCAACUAUGACACGCAAAACGCGUGCUCCGUUGAUUGGAGUUUAUCACG [A138U U151C] — lower, -4.01
